The source gives no read counts; variants with many changes may rest on few reads.

The labels stand for the following.
B1: LINE1-mini (parent)
chain: GGCAGAGCUCAACACAGCGUGGCAAAGUGGCUGUGGCUAGACUGCC

Variants of B1 are the subject of this data set. Description: self-cleavage, relative activity (ratio to wild type); higher = more cleavage; in vitro, sequencing; the parent is a self-cleaving ribozyme.
For the variant GGCAGAGCUCAACAAAGCGUGGCAAAGUGGCUGUGGCUUGAGUGCC, the self-cleavage stood at 0.03.
GGCAGAGCUCAACACACCGUGGCAAAGUGGCUGUGCCGAUACUGCG: the self-cleavage was found to be 0.07.
Take GGCAGCGCACAAGACAGCGUGGCACAGUGGUUGUGUUUAGACUGCC: the self-cleavage was 0.6.
With GGCAGAGCUCUACACUGCGUGGCAAAGUGGGUGUGGCCAGACACCC, the self-cleavage was 0.02.
As to GGCAGAGCUCAACACAGAUAGGCAAAGUGGCUGUGGCUAGAAUGCC, the self-cleavage was found to be 0.01.
With GGCAGAGCUCAACAUAGAGUGGCAAAGUGUCUGUGAAUAGACUGGC, the self-cleavage stood at 0.02.
As to UGCAGAGCUCAAAACAGCGUGGCAAAGUGGCUGUGGCUCGACUGCC, the self-cleavage was 0.02.
Turning to GGCAGAGCUCUACACUGCGUGGCAAAGUGGCUGUGCCUAGACUGCC, the self-cleavage was 0.02.
The value for GGCAGAGCUGAACACAGCGUGGGAAAGUGGCUGUGGCCAGACUGCC was 0.01; that for GGCAGAGCUCGACACAGCGUGGCAAAGUGGCUGUGGCUAGACUCCG was 0.
Take GGCAUAGCUCAACAGAGCGUGGCAAAGUGGCUGUGGCUAGACUGCA: the self-cleavage is 0.03.
As for GGCAGAGCUCAAAACAGCGUUAUAAAGUGUCUGUGGCUAGUCAGCA, the self-cleavage stood at 0.04.
The value for GGCAGAGCUCAACAAAGCGUGGCAAAGUUGCUGUGGAUAGACUGCC was 0.05; that for GGCAGAGCUUAACACAGCAUACCAAAGUGGCUGUGGCUAGACUGCC was 0.19.
Consider GGCAGAGCCCAGCACAGCGUGGCAAAGUGGCUUUGGCUAGACUGCC, for which the self-cleavage stood at 0.02.
Take GGAAGACCUCAAGACAGCGUGGCAAAGUGGCUGUGGCUAGCCUGCC: the self-cleavage stood at 0.02.
For the variant GGCAGAGCUAAGCACAGCGUAGCAAAGUGGCUGUGGCUAGACUGCC, the self-cleavage is 0.01.
As to GACAGAGCUCAACACAGCGUGGCAAAGUGGCUGUGGCUAGAACGCC, the self-cleavage amounted to 0.08.
For GGCAGAGCUCAACACAGCGUAGCAAAGUGUAUGUGGAUAGAGUGCG, the self-cleavage amounted to 0.02.
Next, GGCAGAUCUCAGCACACCGGGGCAAAGUGGUUGUGGCUAGACUCCU: 0.05; GGCAGAGCUCAACACAGCGUGGCAAAGAGGCUGUUGCUGGACAGAC: 0.1.
GGCAGAGCUCAACACAGCGUAGCAAAGUUGAUGUGGCUAGACUGCU: the self-cleavage worked out at 0.04.
On to GGCAGAGCUCAACACAAAGUGGCAAAGUGGCAGUGGCUAGGCUGCC, for which the self-cleavage came out at 0.02.
As to GGCAGACCUCAACACAGCAUGGCAAAGUGGCUGUGACUAGACUGCC, the self-cleavage is 0.24.
The value for GGCAGAGCUCGACACACUGUGGCGAAGUGGCUGUGGCUAGACUGCC was 0.02.
Take GGUACAGCUCAACACAGCGUGGCAAGGUUGCUGUGGCUAGACUGCC: the self-cleavage came out at 0.09.
With GGAAGAGCUCAACACAGCGUGGCAAAGUGGCUGUGGAUAGACUGCA, the self-cleavage turned out to be 0.53.
The value for GGGAGAGCUCAACACAGCGUGGCAAGGUGGCUGUGGUUAGACUGCC was 0.01; that for GGCAGAGCUCAACCCAGCGUGGCAAAUUGGCUGUGGCUCAACUUCC was 0.13.
Turning to GGCAGAGAUCAACACAGCGUUGCAAAGUGGCUGCGCCUAGACUGCC, the self-cleavage was found to be 0.09.
Take GGCAAACCUCAACACAGAGUGGCAAAGUGGCUGUGGCUAGACUGCC: the self-cleavage amounted to 0.18.
Regarding AUCAGAGCUCAACACAGCGUGGCAAAGGGGCUGUGGCUAGAGUGCC, the self-cleavage came to 0.03.
The value for CGCAGAGCUCAACACAUCGUGGAAAAGUGCCUGUGGCUAGACUGCC was 0.03; that for GGCAUAGCUCAACACAGCGUGGCAAAGUGGGUGUGGCUAGAGUGCC was 0.04.
Consider GGCAGAGUUCAACACAGUGUGGCAAAGUGGCUGGGCCUAGGCUCCC, for which the self-cleavage amounted to 0.06.
As for GGCAGAGCACAUCAUAGCGUGGCAAAGUGGCUGAGGCUAGACUGCC, the self-cleavage stood at 0.02.
On to GGCAGGGCUCAACAGAGCGUGGCAAAGUGUCUGUGACUAGACUGCA, for which the self-cleavage turned out to be 0.03.
As for GGCAGAGCUCAGCACAGCGUGGCAAAGAGGCUGUGGCCAGACUGCC, the self-cleavage was 0.07.
In the case of UCCAGAGCUCAACACAGCGUGACAAAGUAGCUGUGGCUAGACUGCC, the self-cleavage was 0.12.
With GGCAGAGCUCUACACAGCGUGGCAAAGUGGCUGUGGGUACACUGCC, the self-cleavage turned out to be 0.02.
Take GGCGGAGCUCAACACCGCGGGGCAAAGUGGCUGUGGCUAGACUGCC: the self-cleavage worked out at 0.01.
Turning to GGUAGAGCUCAACACAGCGUGGCAAACUUGCUGUGGCUAGACUGCC, the self-cleavage came out at 0.12.
Next, GGCAGAGGGCAACACACAGUGGCUAAGUGGCUGUGGCUAGACUGCG: 0.15; GGCAGCGCUCAACACAGCGUGGCAAAGUGGGUGUGGCUAGAGUGCC: 0.03; GGCAUAGCUCAACACAGCGUUGCAAAGUGGCGGUGGCUAGGCUGCC: 0.02.
Regarding GGCAGAGCUCAACACAGUGUUGCAAAGUGGCUGUGGCUCGACUGAC, the self-cleavage turned out to be 0.06.
Turning to CGCAGAGCUAAACACAGCGUGGCAAAGUGGGUGUGGCUAGACUGCC, the self-cleavage was 0.
As to GGCAGAGCUCAACACAGCGUGGCAAAGUAGCUGUGGAUAGACGGCC, the self-cleavage was found to be 0.01.
With GGCAGAGGUUAACACAGCGUGGCAAAGUUGCUGUGGCUAGACUGCC, the self-cleavage was 0.07.
In the case of GGCAGAGCUCAACACAGGGUGGCAAAGUUGCUGUGGUUAGACUGCC, the self-cleavage worked out at 0.02.
With GGCAGAGCUCAACACAGCGUGGCAUAGUGGCUGGGGCUAGGCCGCC, the self-cleavage is 0.02.
For the variant GGCAGAGCUCAACACAGUGUGGCAAAGUGGCUAUCGCUGGACUGCC, the self-cleavage was found to be 0.02.
For GGCAUCGCUCAACACAGGGUGGCAAACUGGCUGUUGCUAGACUGCC, the self-cleavage stood at 0.04.
On to GGCGCAGCUCAACACAGCGUGGCAAAGUGUCUGUUGCUAGACUGUC, for which the self-cleavage was 0.05.
In the case of GGCAGAGCUCAACACAACGUGGCAAAGUGGGUGGGGCUAUACUGCC, the self-cleavage was 0.
Consider GGCAGAGCUCAAUACAGCGUGGCAAAGCGGCUGUGGCUAAAGUGCC, for which the self-cleavage was 0.26.

The values above are taken from the RNAGym collection of RNA variant scans (doi:10.7554/elife.90254).
